Measurements as given in publication PMC6919601, “Identification of Plasmodium dipeptidyl aminopeptidase allosteric inhibitors by high throughput screening” (PLoS ONE, 2019).
About 230 (0.21%) of roughly 110,000 compounds showed an effect of 50% or more. The list shows a part of the results.

molecular target: DPAP1 (Plasmodium falciparum, UniProt Q8IIJ9); assay: primary screen, percent inhibition; read by cleavage of a fluorogenic dipeptide substrate; higher = more effect of the substance; design: species or system P. falciparum D10 trophozoite lysates; single well
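Note: 30 min substrate incubation versus DMSO and 10 µM JCP410 controls.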

DPAP1, sequence (Q8IIJ9 whole entry, looked up): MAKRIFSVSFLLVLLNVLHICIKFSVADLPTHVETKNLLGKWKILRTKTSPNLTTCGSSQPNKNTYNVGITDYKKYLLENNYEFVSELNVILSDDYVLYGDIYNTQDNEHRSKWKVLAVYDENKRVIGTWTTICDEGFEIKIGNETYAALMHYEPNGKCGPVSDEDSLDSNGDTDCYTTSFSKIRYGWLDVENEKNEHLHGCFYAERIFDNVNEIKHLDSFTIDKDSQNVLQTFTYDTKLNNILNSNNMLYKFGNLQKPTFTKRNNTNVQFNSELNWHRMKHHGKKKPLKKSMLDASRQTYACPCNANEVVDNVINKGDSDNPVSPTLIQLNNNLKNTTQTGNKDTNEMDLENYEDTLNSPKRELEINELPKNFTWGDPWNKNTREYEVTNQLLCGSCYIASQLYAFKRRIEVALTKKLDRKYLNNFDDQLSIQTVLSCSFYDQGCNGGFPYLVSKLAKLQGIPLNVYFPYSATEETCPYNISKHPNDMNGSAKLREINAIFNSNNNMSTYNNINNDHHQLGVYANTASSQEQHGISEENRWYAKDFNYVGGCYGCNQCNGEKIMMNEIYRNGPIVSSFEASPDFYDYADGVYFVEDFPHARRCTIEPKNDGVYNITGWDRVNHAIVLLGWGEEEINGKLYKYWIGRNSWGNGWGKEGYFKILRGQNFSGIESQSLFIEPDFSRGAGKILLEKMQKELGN

Row | SMILES | % Inhibition @ 10 uM
1 | CCOc1ccc2ncc(C(=O)c3ccccc3)c(N3CCOCC3)c2c1 | 1.31%
2 | Cc1cccc(C)c1NC(=O)CN(C1CCCCC1)S(C)(=O)=O | 0.632%
3 | Cc1ccc2onc(CNC(=O)N3CCC4(CC3)OCCO4)c2c1 | -5.23%
4 | COc1cccc(C(=O)Nc2ccc3oc(-c4ccc(F)cc4)nc3c2)c1 | -1.79%
5 | COc1ccc(CC(=O)N2CCN(C(=O)Cc3ccc(OC)cc3)CC2)cc1 | 0.583%
6 | COc1ccc(CCNc2cc(C)nc3c(-c4ccc(OC)c(OC)c4)c(C)nn23)c(OC)c1 | -0.138%
7 | CC1=CC(=O)C=C/C1=N/C(=N\S(=O)(=O)c1ccc(C)cc1)c1ccccc1 | -5.38%
8 | CN1C(=O)C(=CNCCCN2CCCC2=O)C(=O)N(C)C1=O | -4.74%
9 | Cn1c(=O)c2ncn(CC(=O)Nc3cc(C(C)(C)C)cc(Cl)c3O)c2n(C)c1=O | -5.03%
10 | CCOc1ccc2nc(NC(=O)C3CCN(S(=O)(=O)c4cccs4)CC3)sc2c1 | -1.28%
11 | COc1ccc(-c2cc(C)no2)cc1S(=O)(=O)Nc1cccnc1 | -5.87%
12 | CCOc1ccc(-c2nc(C3COc4ccccc4O3)cs2)cc1 (stereo not drawn) | -2.63%
13 | O=C(C1CCN(c2ncnc3c2sc2cccc(F)c23)CC1)N1CCN(Cc2ccccc2)CC1 | -0.637%
14 | CCc1nnc(NC(=O)CSc2nc(-c3cccs3)cc(C(F)(F)F)c2C#N)s1 | 9.42%
15 | CN(CCC#N)C(=O)Cn1ncc2c1-c1ccccc1OC2 | 2.6%
16 | CCCCOc1ccc(C(=O)N(CCCN(C)C)c2nc3c(OC)cccc3s2)cc1 | -2.41%
17 | Cc1ccc(N)cc1NC(=O)c1ccc(N)cc1 | 8.19%
18 | O=C(Cn1c(=O)n(Cc2ccco2)c(=O)c2sc3ccccc3c21)NC1CCCCC1 | -6.52%
19 | CC(=O)Nc1sc2c(c1C(=O)Nc1ccc(Br)cc1)CCCC2 | -4.06%
20 | CCN(CC)S(=O)(=O)c1cc(C(=O)NCc2ccco2)ccc1Br | 0.291%
21 | CC(C)c1ccc(CSCc2nc3ccccc3[nH]2)cc1 | 1.03%

Row | SMILES | % Inhibition @ 10 uM
22 | COc1ccccc1Nc1cc(C)nc2c(OC)cccc12 | 1.05%
23 | Cc1ccccc1OCCSc1nc(-c2ccccc2F)nc2cc(=O)[nH]n12 | 1.97%
24 | COc1cc(/C=c2/sc3nc4cc(C)c(C)cc4n3c2=O)cc(OC)c1OC | -0.053%
25 | CCOC(=O)Nc1ccc2c(c1)N(C(=O)CNC(C)C)c1ccccc1CC2 | -2.69%
26 | O=C(NCc1ccco1)c1cc(-c2ccc(Cl)s2)nc2ccccc12 | -3.27%
27 | O=C(CSc1nnc(CNC(=O)c2c(F)cccc2Cl)o1)NCc1ccc2c(c1)OCO2 | -1.58%
28 | CCOC(=O)c1c(S(=O)(=O)NC(C)(C)CC)c(C)n(C)c1C | 4.85%
29 | C=C(C)Cn1c(S)nnc1-c1ccc(Cl)cc1Cl | 7.49%
30 | NS(=O)(=O)c1ccc(CCNC(=O)COc2ccccc2)cc1 | -3.49%
31 | CC(C)Cn1c(CN2CCN(Cc3ccccc3)CC2)nc2c1c(=O)[nH]c(=O)n2C | 6.37%
32 | CC1=C(C(=O)N2CCOCC2)C(c2ccc(Cl)cc2)C2=C(O)CC(C)(C)CC2=N1 (stereo not drawn) | 6.48%
33 | COc1ccc(C2=NOC(C(=O)NCc3cccnc3)C2)cc1 (stereo not drawn) | -3.67%
34 | COc1ccc(C2SCC(=O)N2c2ccc(C)cc2)cc1 (stereo not drawn) | 0.912%
35 | CCOc1cc(C2C(C(=O)OC)=CN(C(C)C)C=C2C(=O)OC)ccc1O | 0.219%
36 | Cc1nn(Cc2nc(-c3ccncc3)no2)c(C)c1Br | -4.49%
37 | COc1cccc(C(=O)Nc2ncccc2C)c1OC | 3.35%
38 | CC1CC(C)CN(c2nnc(NC(=O)c3cc(-c4ccc(Br)cc4)on3)s2)C1 (stereo not drawn) | 3.3%
39 | COc1cccc(CNC(=O)CNS(=O)(=O)c2ccc(Br)s2)c1 | -0.601%
40 | O=C(NCCC1=CCCCC1)c1cc2cccc3c2n1CCS3 | 4.76%
41 | Cc1cc(-c2[nH]nc3c2C(c2cc(F)ccc2F)C(C#N)=C(N)O3)c(C)s1 (stereo not drawn) | -2.77%
42 | CC(=O)N1N=C(c2cccs2)CC1c1ccco1 (stereo not drawn) | -7.28%

Row | SMILES | % Inhibition @ 10 uM
43 | CCc1[nH]nc2c1C(c1ccc(-c3ccc(F)cc3)o1)C(C#N)=C(N)O2 (stereo not drawn) | -3.16%
44 | C#CCn1c(CCNC(=O)c2ccco2)nc2ccccc21 | 5.45%
45 | COc1cc(C2CC(=O)Nc3c2ccc2ccccc32)cc(OC)c1OC (stereo not drawn) | -2.42%
46 | CC1=C(C(=O)Nc2ccccc2C)C(c2cccnc2)n2nc(-c3ccccc3Cl)nc2N1 (stereo not drawn) | -4.02%
47 | O=C(CSc1ncnc2sc3c(c12)CCCC3)NCc1ccco1 | -3.41%
48 | O=C(O)CNC(=O)c1ccncc1 | 1.91%
49 | Cc1cccc(C)c1OCCCc1c(C)n[nH]c1C | -1.64%
50 | OCC1CCCN1Cc1ccc(Cl)cc1 (stereo not drawn) | -5.42%
51 | CCCCN(CCCNC(=O)Cn1ncc2c3ccccc3n(C)c2c1=O)Cc1ccccc1 | -5.49%
52 | COC(=O)c1sccc1NC(=O)C1CCCN(S(=O)(=O)N2CCCCCC2)C1 (stereo not drawn) | -2.68%
53 | CC(C)(C)NC(=O)C(Cc1ccc([N+](=O)[O-])cc1)N1C(=O)c2ccccc2C1=O (stereo not drawn) | 0.937%
54 | Cc1ccc(CN2C(=O)CSC2c2ccc(C(C)C)cc2)cc1 (stereo not drawn) | 2.46%
55 | CCCCN(C)CCNC(=O)CCn1nc(-c2ccc(Cl)cc2)ccc1=O | 1.62%
56 | CC(C)Cn1c(=O)c2ccccc2n2c(CCC(=O)N3CCN(Cc4ccccc4)CC3)nnc12 | 0.981%
57 | CCOc1cc(C2C(C#N)=C(N)OC3=C2C(=O)CCC3)ccc1OCc1ccccc1 (stereo not drawn) | 2.01%
58 | Cc1cc(=O)oc2c(C)c3occc3cc12 | -5.99%
59 | NC(=O)c1c(NC(=O)c2ccco2)sc2c1CCCCC2 | 22.3%
60 | O=C(NCc1ccccc1)c1ccc(CN2CCc3ccccc3C2)cc1 | -1.65%
61 | Cc1ccc(CS(=O)Cc2ccc(C(=O)N3CCN(c4ccccn4)CC3)o2)cc1 (stereo not drawn) | 2.03%
62 | N#Cc1c(NC(=O)COc2ccccc2)sc2c1CCCC2 | 6.1%
63 | Cc1ccc(CCNC(=O)CCS(=O)(=O)c2ccc3nc(C)sc3c2)cc1 | 3.54%
